In the supplement of paper PMC4967469:
IC50 is the fitted dose that halves viability relative to control wells, and lower means more sensitive; a limit (>, <) means that the fit lies beyond the doses tested. AUC is the area under the same curve over the 256-fold range up to the top dose, as a fraction: 1 means no effect, lower means more sensitive. For some assays here: A top dose marked as inferred was calculated from the reported fits. For some assays here: Drugs with an entry number were screened twice under separate entries, and the two screens often disagree.

Tests used:
Assay in all cases: Viability of human cancer cell lines after 72 h of drug (GDSC screen)
[1] = compound: COc1cc(O)c2c(c1)/C=C/C[C@H](O)[C@H](O)C(=O)/C=C\C[C@H](C)OC2=O [(5Z)-7-Oxozeaenol]; details: top dose 10 µM; top dose inferred
Method: (§1)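 Human cancer cell lines in 384-well plates, medium with 10% serum, drug for 72 h over a 256-fold dose range (nine 2-fold or five 4-fold steps up to the top dose). Adherent lines were fixed and stained with the nucleic acid dye Syto60, suspension lines read with resazurin; signal relative to control wells, capped at 0 and 100%. One two-parameter sigmoid per drug and line, fitted in a mixed model over all curves with the slope shared within a line.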

[2] = compound: O=c1cc(-c2cccc3c2Sc2ccccc2S3)oc(N2CCOCC2)c1 [KU-55933]; details: top dose 10 µM
Method: as §1

[3] = compound: COc1cc2ncnc(-n3nc(-c4ccccn4)nc3N)c2cc1OC [CP466722]; details: top dose 16 µM; top dose inferred
Method: as §1

[4] = compound: C[C@]1(c2nc3c(C(N)=O)cccc3[nH]2)CCCN1 [ABT-888]; details: top dose 5 µM; top dose inferred
Method: as §1

[5] = compound: COc1cc(N2CCC(O)CC2)ccc1Nc1cc(Nc2ccccc2S(=O)(=O)C(C)C)c2cc[nH]c2n1 [MPS-1-IN-1]; details: top dose 20 µM; top dose inferred
Method: as §1

[6] = compound: Nc1ccn([C@@H]2O[C@H](CO)[C@@H](O)[C@@H]2O)c(=O)n1 [Cytarabine]; details: top dose 2 µM
Method: as §1

[7] = compound: Cc1ccc(F)c(NC(=O)Nc2ccc(-c3cccc4[nH]nc(N)c34)cc2)c1 [ABT-869]; details: top dose 1.024 µM; top dose inferred
Method: as §1

[8] = compound: C/C=C(/C)C(=O)O[C@H]1C(C)=C2[C@H]([C@@H]1OC(=O)CCCCCCC)[C@@](C)(OC(C)=O)C[C@H](OC(=O)CCC)[C@@]1(O)[C@H]2OC(=O)[C@@]1(C)O [Thapsigargin]; details: top dose 0.512 µM; top dose inferred
Method: as §1

[9] = compound: Cc1cnc(-c2cnc(NCCNc3ccc(C#N)cn3)nc2-c2ccc(Cl)cc2Cl)[nH]1 [CHIR-99021]
Method: as §1

[10] = compound: C=CC(=O)Nc1cc(-n2c(=O)ccc3cnc4ccc(-c5cn[nH]c5)cc4c32)ccc1C [QL-X-138]; details: top dose 10.24 µM; top dose inferred
Method: as §1

[11] = compound: CCn1c(-c2nonc2N)nc2cnc(Oc3cccc(NC(=O)c4ccc(OCCN5CCOCC5)cc4)c3)cc21 [GSK269962A]; details: top dose inferred
Method: as §1

[12] = compound: COc1nc(C)cnc1NS(=O)(=O)c1cccnc1-c1ccc(-c2nnco2)cc1 [Zibotentan]; details: top dose 20 µM; top dose inferred
Method: as §1

[13] = top dose 2.56 µM, screen: GDSC drug entry 154
[14] = top dose 10 µM, screen: GDSC drug entry 1241, top dose inferred
[15] = top dose 2.5 µM, screen: GDSC drug entry 127
[16] = top dose 5 µM, screen: GDSC drug entry 1192

Cell Line	AUC [1]	IC50 [1] [µM]	AUC [2]	IC50 [2] [µM]	AUC [3]	IC50 [3] [µM]	AUC [4]	IC50 [4] [µM]	AUC [5]	IC50 [5] [µM]	AUC [6]	IC50 [6] [µM]	AUC [7]	IC50 [7] [µM]	AUC [8]	IC50 [8] [µM]	AUC [9, 13]	IC50 [9, 13] [µM]	AUC [9, 14]	IC50 [9, 14] [µM]	AUC [10]	IC50 [10] [µM]	AUC [11, 15]	IC50 [11, 15] [µM]	AUC [11, 16]	IC50 [11, 16] [µM]	AUC [12]	IC50 [12] [µM]
RC-K8 (B-cell lymphoma, suspension)	0.867	7.08	0.98	> 10	0.929	> 16	0.992	> 5	0.954	> 20	0.99	> 2	0.993	> 1.02	0.654	0.0801	0.991	> 2.56	0.962	> 10	0.927	> 10.2	0.984	> 2.5	0.98	> 5	0.992	> 20
RCM-1 (large intestine, adherent)	0.709	2.79	0.982	> 10	0.931	> 16	0.984	> 5	0.98	> 20	0.885	> 2	0.982	> 1.02	0.649	0.091	0.96	> 2.56	0.857	> 10	0.97	> 10.2	–	–	0.9	> 5	0.984	> 20
RERF-LC-KJ (lung adenocarcinoma, adherent)	0.818	5.84	0.929	> 10	0.82	9.5	0.987	> 5	0.943	> 20	0.779	0.839	0.982	> 1.02	0.582	0.0539	0.98	> 2.56	0.971	> 10	0.893	> 10.2	–	–	0.941	> 5	0.983	> 20
RERF-LC-MS (lung adenocarcinoma, adherent)	0.671	1.9	0.972	> 10	0.828	10.2	0.987	> 5	0.914	> 20	0.857	1.69	0.985	> 1.02	0.195	0.00385	0.987	> 2.56	0.923	> 10	0.957	> 10.2	–	–	0.887	> 5	0.984	> 20
RERF-LC-Sq1 (lung squamous cell carcinoma, adherent)	0.843	> 10	0.884	> 10	0.837	> 16	0.943	> 5	0.93	> 20	0.757	1.01	0.975	> 1.02	0.514	0.0355	0.977	> 2.56	0.976	> 10	0.8	7.95	–	–	0.817	4.67	0.976	> 20
RH-41 (rhabdomyosarcoma, adherent)	0.695	1.98	0.931	> 10	0.901	14.8	0.987	> 5	0.962	> 20	0.46	0.0992	0.991	> 1.02	0.459	0.0252	0.992	> 2.56	0.901	9.23	0.652	1.56	–	–	0.966	> 5	0.99	> 20
RKN (ovary, adherent)	0.46	0.482	0.93	> 10	0.818	9.72	0.981	> 5	0.972	> 20	0.751	0.69	0.97	> 1.02	0.896	> 0.512	0.985	> 2.56	0.937	> 10	0.667	1.92	–	–	0.833	3.5	0.983	> 20
RO82-W-1 (thyroid, adherent)	0.668	2.1	0.967	> 10	0.973	> 16	0.976	> 5	0.979	> 20	0.904	> 2	0.982	> 1.02	0.761	0.231	0.94	> 2.56	0.9	> 10	0.955	> 10.2	–	–	0.866	> 5	0.982	> 20
RPMI-2650 (head and neck, adherent)	0.638	1.56	0.965	> 10	0.862	15.5	0.983	> 5	0.943	> 20	0.632	0.298	0.984	> 1.02	0.216	0.00431	0.972	> 2.56	0.982	> 10	0.721	2.88	–	–	0.947	> 5	0.985	> 20
